Reference: PubChem BioAssay AID493208 (National Center for Advancing Translational Sciences (NCATS), 2011)
Among all 44,000 compounds or so, about 340 (0.77%) were called active. Roughly 5% stayed inconclusive and do not appear here. The call rests on the fitted dose curve; in most records, active means well fitted inhibition curve with a large enough effect; inconclusive means small, poorly fitted or top-dose-only effect; inactive means flat fitted curve, though single readings scatter. The list shows a part of the results.

Assay: Acumen qHTS Assay for Inhibitors of the mTORC1 Signaling Pathway in MEF (Tsc2-/-, p53-/-) Cells: Sytravon;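 further: plate controls were DMSO for no effect and rapamycin for full effect; nearly all actives have a fitted effect of over 50% in size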
Conditions: phospho-rpS6 immunofluorescence/PI, 24 h; series mostly up to 38.3 µM; activity change, negative = inhibition: at the top concentration
In short: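 Plate MEFs (Tsc2-/-, p53-/-, empty vector) in DMEM/10% FBS; after 24 h add compound, incubate 24 h at 37 degree Celsius; fix in PFA/TX-100, block, stain phospho-rpS6 and 10 uM PI; scan at 488 nm; report % positive cells.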

| SMILES | activity change, negative = inhibition |
| --- | --- |
| COc1ccccc1N1CCN(c2ccc3cc(S(=O)(=O)N4CCCCC4)ccc3n2)CC1 | inactive: 3.5% |
| CCOc1ccc(-n2nc(CO)c(C(=O)NCc3ccc(Cl)cc3)n2)cc1 | inactive: -0.67% |
| COc1ccc(Br)c2c1-c1nc(NC(=O)c3cccc(C)c3)sc1C2 | inactive: -3.26% |
| CC1CCN(C(=O)CSc2c3c(nc4cc(Cl)ccc24)CCCC3)CC1 | inactive: -9.76% |
| Cc1ccc(-c2nnc(SCCOc3ccccc3)o2)cc1 | inactive: -10.1% |
| CCOc1ccc(-c2cn(-c3ccc(OC)cc3)c(SCC(=O)Nc3ccccc3Cl)n2)cc1 | inactive: 0.183% |
| COc1ccc(F)cc1S(=O)(=O)NCCc1csc(-c2ccc(Cl)cc2)n1 | inactive: -8.12% |
| CCc1ccc(NC(=O)C2CCN(c3nnc(-n4c(C)ccc4C)s3)CC2)cc1 | inactive: -0.103% |
| CCC(=O)Nc1sc2c(c1C(=O)Nc1ccc(OC)cc1)CCC(C(C)(C)C)C2 (stereo not given) | inactive: 3.85% |
| O=C(Nc1ccc(S(=O)(=O)N2CCC(c3nc4ccccc4s3)CC2)cc1)c1ccc(F)cc1 | inactive: 2.36% |
| Cc1cc(C)c(S(=O)(=O)NCCc2cc3c(C)ccc(C)c3[nH]c2=O)c(C)c1 | inactive: -13.4% |
| Cc1ccc(NC(=O)C2Cc3ccccc3N2C(=O)c2ccccc2)cc1Cl (stereo not given) | inactive: 0% |
| CCCC(=O)NCCc1nc2ccccc2n1Cc1c(F)cccc1Cl | inactive: 9.79% |
| Cc1ccc(C)c(-n2nnc(-c3nc(-c4ccc(Cl)cc4)no3)c2N)c1 | inactive: -8.25% |
| COc1ccc(NC(=O)c2sc3nc(C)c(C(=O)Nc4ccc(C)cc4C)c(-c4ccc(Cl)cc4)c3c2N)cc1 | inactive: 2% |
| O=C(NCc1ccc2c(c1)CCN2C(=O)c1ccncc1)c1cccc(Cl)c1 | inactive: -0.296% |
| COc1ccc(OC)c(NC(=O)CSC2=Nc3ccccc3C3=NC(CC(=O)NCc4ccco4)C(=O)N23)c1 (stereo not given) | inactive: 2.1% |
| N#Cc1ccc(C(=O)Nc2ccc(Cl)c(-c3nc4cc(Cl)ccc4o3)c2)c(F)c1 | inactive: -16% |
| Cc1oc(-c2ccccc2F)nc1CS(=O)(=O)CC(=O)N1CCN(c2cccc(C(F)(F)F)c2)CC1 | inactive: -1.31% |
| CCN(C(=O)c1nn(-c2ccc(OC)c(Cl)c2)c(=O)c2c1c1ccccc1n2C)c1cc(OC)ccc1OC | inactive: -12.4% |

| SMILES | activity change, negative = inhibition |
| --- | --- |
| Cc1ccc(NC(=O)c2cccc(NC(=O)N3CCSc4ncccc43)c2)cc1Cl | inactive: -9.49% |
| COc1ccc(N2CCN(C(=O)Cn3ncc4c3-c3cc(C)ccc3OC4)CC2)cc1 | inactive: -3.15% |
| COc1ccc(-c2nc3sc(CCNC(=O)C(=O)Nc4cc(C)cc(C)c4)c(C)n3n2)cc1 | inactive: -0.267% |
| COc1cc(OC)cc(C(=O)Nc2cc(-c3nc4ccccc4s3)ccc2OC)c1 | inactive: -0.759% |
| Cc1ccc(C(=O)NCC(c2cccs2)S(=O)(=O)c2cccs2)cc1C (stereo not given) | inactive: 0.582% |
| CCOc1ccc(NC(=O)CN(C)S(=O)(=O)c2ccc3c(c2)c(=O)n(C)c(=O)n3C)cc1 | inactive: -13.5% |
| COc1ccc(C(=O)NCC(c2cccnc2)N2CCN(c3ccc(F)cc3)CC2)cc1 (stereo not given) | inactive: -1.45% |
| O=C(NCC(c1ccc(Cl)cc1)N1CCCCC1)c1ccc(F)cc1 (stereo not given) | inactive: -2.27% |
| Nc1nc(N)c(S(=O)(=O)c2ccccc2)c(Nc2ccc(Br)cc2)n1 | inactive: -7.01% |
| COc1cccc(-c2cc(C(F)(F)F)nc(-n3nc(C)c(Br)c3C)n2)c1 | inactive: -11.9% |
| Cc1ccc(-n2c(SCc3ccccc3F)nc3[nH]ncc3c2=O)cc1C | inactive: -9.64% |
| COc1ccccc1CNC(=O)c1cccn1-c1nnc(N2CCCC2)s1 | inactive: 6.34% |
| O=C(CSc1ccc2nc(-c3ccccc3)cn2n1)Nc1ccccc1C(F)(F)F | inactive: -1.25% |
| Cc1cccc(NC(=O)C(=O)c2cc(C)n(-c3ccccc3)c2C)c1C | inactive: -0.754% |
| CCOc1cccc2cc(-c3nc4sc(C(=O)Nc5ccc(C)cc5)c(C)c4c(=O)[nH]3)c(=O)oc12 | inactive: 2.77% |
| O=C(Nc1cccc(C(F)(F)F)c1)c1noc2c1CCc1ccccc1-2 | inactive: -2.88% |
| CC(=O)c1cc(-c2ccccc2)n(CC(=O)NC2CCCCCC2)c1C | inactive: -4.79% |
| COc1ccc(N2CCN(C(=O)CSCc3nc(-c4ccccc4Cl)oc3C)CC2)cc1 | inactive: 0.974% |
| CCc1nc(-c2cc(S(=O)(=O)N3CCN(c4ccc(F)cc4)CC3)ccc2OC)no1 | inactive: 0.241% |
| CN(C1CCCCC1)S(=O)(=O)c1ccc(C(=O)Nc2sc3c(c2C(N)=O)CC(C)(C)NC3(C)C)cc1 | inactive: 7.61% |

| SMILES | activity change, negative = inhibition |
| --- | --- |
| Cc1cc(O)c(C(c2cccc(F)c2)N2CCC(C)CC2)c(=O)n1Cc1ccco1 (stereo not given) | inactive: -11.5% |
| O=C(Cn1c(=O)n(Cc2cccs2)c(=O)c2cccnc21)Nc1ccccc1F | inactive: -0.363% |
| O=C(NCCc1ccc(Cl)cc1)c1cccn1-c1nnc(N2CCCCC2)s1 | inactive: 10.6% |
| Cc1cccc(NC(=O)CSc2nc3c(c(=O)[nH]2)CN(Cc2ccc4c(c2)OCO4)CC3)c1C | inactive: 5.62% |
| CNC(=O)c1ccc(Nc2nnc(-c3ccc(C)c(S(=O)(=O)NC(C)(C)C)c3)c3ccccc23)cc1 | inactive: 3.76% |
| CCc1ccc(-n2c(=O)c3cccnc3n2CC(=O)NCc2ccc(F)cc2)cc1 | inactive: 6.91% |
| COc1ccccc1NC(=O)CCN1CCC(C(N)=O)CC1 | inactive: -6.44% |
| CCOC(=O)N1CCc2c(sc3c2c(=O)n(Cc2ccccc2)c(=O)n3CC(=O)Nc2c(C)cccc2C)C1 | inactive: -10.4% |
| Cn1c(=O)c(=O)n(C)c2cc(S(=O)(=O)N3CCN(c4ccccc4F)CC3)ccc21 | inactive: -21.9% |
| COc1ccc(CCNC(=O)Cc2c(C)c3cc(OC)c(OC)cc3oc2=O)cc1 | inactive: -3% |
| Cc1cccc(C)c1OCC(=O)Nc1nonc1-c1ccc(Br)cc1 | inactive: 5.12% |
| Cc1ccc(C(=O)Nc2ccc(-n3c(C)nc4ccccc4c3=O)cc2)cc1[N+](=O)[O-] | inactive: -0.872% |
| O=C(Nc1nc2n(n1)C(c1ccc(F)cc1)C=C(c1ccc(Cl)cc1)N2)c1ccco1 (stereo not given) | inactive: 0.754% |
| CCN(C(=O)CCS(=O)(=O)c1cccc2nsnc12)c1cccc(C)c1 | inactive: -25.4% |
| CCOc1ccc2oc(=O)cc(CN3CCN(c4ccc(OC)cc4)CC3)c2c1 | inactive: -0.894% |
| CCN(C(=O)c1cc2c(s1)-c1c(C)cccc1OC2)c1cc(C)ccc1C | inactive: 0.967% |
| COc1ccc(OC)c(NC(=O)Cn2c(=O)oc3cc(S(=O)(=O)NCc4ccccc4)ccc32)c1 | inactive: 1.43% |
| O=C(NCC12CC3CC(CC(C3)C1)C2)c1cc2nc(-c3ccc(Cl)cc3)cc(C(F)(F)F)n2n1 | inactive: -2.38% |
| Clc1cccc(-c2nnc(CN3CCN(c4ccccn4)CC3)o2)c1 | inactive: 0.693% |
| CC(C)NC(=O)Cn1ncn2c(cc3cc(F)ccc32)c1=O | inactive: -1.22% |
